Data taken from the RNAGym collection of RNA variant scans (doi:10.1073/pnas.2313332121).
This sample is rich in variants without activity.

B1: TPR 5TU (parent)
chain: GGAUCUUCUCGAUCUAACAAAAAAGACAAAUCUGCCACAAAGCUUGAGAGCAUCUUCGGAUGCAGAGGCGGCAGCCUUCGGUGGCGCGAUAGCGCCAACGUUCUCAACUAUGACACGCAAAACGCGUGCUCCGUUGAAUGGAGUUUAUCAUG

Variants of: B1
Experiment: polymerase ribozyme fitness, log enrichment relative to wild type (log ratio); higher = more active; in vitro selection for triplet polymerase activity
In short: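 The heterodimeric triplet polymerase ribozyme's subunits were each mutagenized into PCR-built libraries and transcribed. Every library was selected once, in triplicate, by annealing with a biotinylated primer, the partner subunit and triplets, incubating frozen at −7 °C, gel-excising extended constructs, capturing on streptavidin beads and running RT-PCR. Input and output libraries were Illumina-sequenced, with genotypes kept only at ≥10 input reads and ≥1 read per output. Fitness, from inverse-variance-weighted replicate averages, is the base-2 logarithm of genotype enrichment over wild-type enrichment.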

Row | Variant | polymerase ribozyme fitness (log ratio)
1 | G11U U53A C132U U146G | -3.51
2 | A12C A142C | -1.32
3 | A12C A24U A37G A52C C75U C93U | ≤ -4.2
4 | A12C C54U | -0.207
5 | A12C C51U C54G G74U G84A G152A | ≤ -4.2
6 | A12C A20U U53C A89G | -3.96
7 | G11U A28U A60U G83A C103G | ≤ -4.2
8 | G11U C93G | -3.88
9 | G11U G42C A47C G74A C96G C105U G140A | ≤ -4.2
10 | A12C C85U A91G G124A G126C | ≤ -4.2
11 | A12C A16G C18U A37U C76A C95U C149A | ≤ -4.2
12 | A12C A17G A24C G74A G141U | ≤ -4.2
13 | G11U A47C G50U C57G A64U C76G | ≤ -4.2
14 | A12C A29U U56G C85G C96G G140C A147U | ≤ -4.2
15 | A12C C27A A49G C75U C125G C129A A138G C149G | ≤ -4.2
16 | G11U C36A G84A U104G U134A | ≤ -4.2
17 | G11U U31G G50C A121C C125G | ≤ -4.2
18 | G11U U56C U78G C85U A89G | ≤ -4.2
19 | A12C A23C U56A C87U G88C A91G C103G | ≤ -4.2
20 | G11U A73U G92U C114A | ≤ -4.2
21 | G11U A39U A40U A60U C79U U101A | ≤ -4.2

Row | Variant | polymerase ribozyme fitness (log ratio)
22 | G11U G94A A98C | -1.81
23 | G11U U44A G92C | ≤ -4.2
24 | G11U U15C C35G C76A G94A U101A | ≤ -4.2
25 | G11U C103G C123G | -2.44
26 | A12C A28G A30G C32A A52G C79U G86C A91U G136A G143C U145G | ≤ -4.2
27 | A12C A40U G42A U55A G88U A115G | ≤ -4.2
28 | A12C C57G C75G G94A U101A C105A G143C | ≤ -4.2
29 | A12C A20U C79U G84U | ≤ -4.2
30 | A12C A20G G25A A30G U44A A89G U145G | ≤ -4.2
31 | G11U A22C C87U | -2.61
32 | G11U C14U A41C A47G C51G C72A G74C C95U U101G A107C | ≤ -4.2
33 | G11U A28U C54G G68A C79A G80C G88A U101A A142C | ≤ -4.2
34 | A12C A64U G68C G84U A106C U145G | ≤ -4.2
35 | A12C C18G A20U C43U G71U C72U A91G | ≤ -4.2
36 | G11U U61A C87U | -3.78
37 | G11U C51U G62C G70A G86A A91G | ≤ -4.2
38 | A12C C79U C85U U127C G141U | ≤ -4.2
39 | A12C A22C G50C G92C C125U | ≤ -4.2
40 | G11U G25C C32U G50C A60G C95U | ≤ -4.2
41 | A12C A23U A49C G62A A91U U109G A137C | ≤ -4.2
42 | G11U A30U G65U G70C C85G A91U C93A A150U | ≤ -4.2

Row | Variant | polymerase ribozyme fitness (log ratio)
43 | G11U U15C C35U U82G C93G G126C | ≤ -4.2
44 | A12C C69A U90A G124C A138U U148A | ≤ -4.2
45 | A12C A22U A23G A40C A52U A60G A91C C96A C99A C105U C123G U135A | ≤ -4.2
46 | A12C C57G A107C U134G | ≤ -4.2
47 | G11U U13G A22U A24G A64G A107U G143A U145G | ≤ -4.2
48 | A12C G50U G88C | ≤ -4.2
49 | G11U G68U C85G U90A A121U | ≤ -4.2
50 | A12C A49U A60C U61G A91C | ≤ -4.2
51 | G11U C57G A119U A121G C149U | -2.88
52 | A12C A30C U31A A39U C87A | ≤ -4.2
53 | A12C A23G G34A U56G C87A C95G C99A G136U | ≤ -4.2
54 | A12C C35U G68A U82A C93A | ≤ -4.2
55 | A12C C27U C35U A52C C75A A115C | ≤ -4.2
56 | A12C A23U A39C A41C C87A G100C G117A | ≤ -4.2
57 | A12C A39U A64C C72U A110U G117U | ≤ -4.2
58 | A12C G58U G81A C93A C103G A137G | ≤ -4.2
59 | G11U A40G U45G G71U G83C U127C U134A A137G | ≤ -4.2
60 | A12C A17C G58C G70C G92C C114G C116U | ≤ -4.2
61 | A12C A37C U53C G86U A97G A113U | ≤ -4.2
62 | A12C A16G A39U A91C G141C U148G | ≤ -4.2
63 | G11U U13G G25U C35A A60G C87U C103G G152U | ≤ -4.2

Row | Variant | polymerase ribozyme fitness (log ratio)
64 | A12C G34U G50U G88C A98U C125A | -4.18
65 | A12C C14A A23U U55A A73G C85A G126U U148G | ≤ -4.2
66 | G11U A47C U56C G67U C75A U90A C93U | ≤ -4.2
67 | G11U C54G C87U | ≤ -4.2
68 | G11U A29U A37U C95U C103G | ≤ -4.2
69 | G11U G42U U45G C69U C93U | ≤ -4.2
70 | A12C A22G C32G C51G A60U U77A G81C G128A U148C | ≤ -4.2
71 | G11U C79G C85G | ≤ -4.2
72 | A12C A28G A29U A49U U55A G62C G67C G83C A142U U144G | ≤ -4.2
73 | A12C C76G G94C A150C | ≤ -4.2
74 | A12C C76A A91U | ≤ -4.2
75 | A12C A16G A41C A121U | -1.69
76 | A12C C18U G65U G84A A120U C125U | ≤ -4.2
77 | A12C A19C C99U | -1.52
78 | G11U C85U A91C | ≤ -4.2
79 | A12C G46U A113U C118U | -3.95
80 | A12C G42U | ≤ -4.2
81 | G11U G68A | ≤ -4.2
82 | A12C A20C G74C U82G C95G U111C | ≤ -4.2
83 | A12C A21U A64C G84U U127C A138U | ≤ -4.2
84 | G11U A23C C27G G48A C57U C75U C79A A107G U135C G141U | ≤ -4.2
